Laboratory results reported in PubChem BioAssay (Tox21).
Several values for one entry are separate records, joined by “and”; a condition that tells them apart may be missing. Equal values may be shown once. The inconclusive results got no clear call from the source; some entries with a clear call stand among them for comparison. Potencies beside an inconclusive call are fits to weak or partial responses and may not hold up. Some structures have more than one record in an assay (separate samples or runs), and their calls can disagree. Activity calls are given as the source filed them. Unless noted, calls come from the whole dose curve; as a rule, active = well fitted curve in the direction sought with a large enough effect in the repeat runs; inconclusive = weak or mixed curves; inactive = no such curve, though single readings can be large; an effect the other way counts as inactive or inconclusive.

What was measured:
[1] = biological target: Aryl hydrocarbon receptor (Homo sapiens) (UniProt P35869); assay: qHTS assay to identify small molecule that activate the aryl hydrocarbon receptor (AhR) signaling pathway (AID 743085); note: nearly all actives have a fitted effect of over 15% in size
UniProt P35869, sequence (P35869 whole entry, looked up): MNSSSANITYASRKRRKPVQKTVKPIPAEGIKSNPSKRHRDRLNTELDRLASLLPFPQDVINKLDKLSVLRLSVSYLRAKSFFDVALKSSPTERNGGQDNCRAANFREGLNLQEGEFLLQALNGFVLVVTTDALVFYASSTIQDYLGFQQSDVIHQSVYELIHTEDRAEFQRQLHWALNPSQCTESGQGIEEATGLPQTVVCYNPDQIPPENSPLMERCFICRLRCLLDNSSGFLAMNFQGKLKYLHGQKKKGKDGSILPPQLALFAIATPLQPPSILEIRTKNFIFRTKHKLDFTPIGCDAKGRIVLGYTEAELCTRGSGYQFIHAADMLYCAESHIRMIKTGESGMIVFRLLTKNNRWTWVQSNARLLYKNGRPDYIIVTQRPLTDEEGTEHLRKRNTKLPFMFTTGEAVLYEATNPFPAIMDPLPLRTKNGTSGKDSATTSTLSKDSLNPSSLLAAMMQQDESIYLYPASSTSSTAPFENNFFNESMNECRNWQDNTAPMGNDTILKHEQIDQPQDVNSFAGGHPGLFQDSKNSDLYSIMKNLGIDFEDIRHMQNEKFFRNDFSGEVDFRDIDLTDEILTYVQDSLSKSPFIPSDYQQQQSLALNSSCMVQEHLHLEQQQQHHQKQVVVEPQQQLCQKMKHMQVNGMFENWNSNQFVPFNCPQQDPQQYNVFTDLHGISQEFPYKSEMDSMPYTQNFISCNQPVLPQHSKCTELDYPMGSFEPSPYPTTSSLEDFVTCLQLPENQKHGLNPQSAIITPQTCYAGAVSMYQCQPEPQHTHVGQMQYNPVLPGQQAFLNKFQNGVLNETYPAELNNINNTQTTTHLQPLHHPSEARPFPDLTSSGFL
Method in brief: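 Compounds were tested in HepG2 hepatocellular carcinoma cells harbouring a stably integrated luciferase gene under control of 20 DREs. Increased reporter signal after 24 h treatment at 37C was taken as AhR activation.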

[2] = qHTS assay to identify small molecule that activate the aryl hydrocarbon receptor (AhR) signaling pathway - cell viability counter screen (AID 743086); note: nearly all actives have a fitted effect of over 45% in size;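 for viability change, negative = cytotoxic: HepG2 liver cells carrying the AhR DRE luciferase reporter; % is set by controls: 0 for no effect and ±100 for the full control effect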
Method in brief: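 HepG2-AhR-luc (HG2L7.5c1) cells, 4000/well, were preincubated 5 h at 37C, exposed to compound in qHTS format for 24 hr at 37C, then given CellTiter-Fluor for 30 min; viability was read as fluorescence in the reporter wells.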

[3] = biological target: Peroxisome proliferator-activated receptor gamma (Homo sapiens) (UniProt P37231); assay: qHTS assay to identify small molecule agonists of the peroxisome proliferator-activated receptor gamma (PPARg) signaling pathway (AID 743094; active = well fitted activation curve with a large enough effect in the signal ratio in the repeat runs, not every such curve was filed as active; inconclusive = weak or mixed curves, or effect the other way; inactive = no such curve, though single readings can be large or run the other way; the % refers to the signal ratio); conditions: HEK293H PPARg-UAS-bla, beta-lactamase FRET ratio, 17 h; activation: at 57 µM (top of the series) unless noted
UniProt P37231, sequence (P37231 whole entry, looked up): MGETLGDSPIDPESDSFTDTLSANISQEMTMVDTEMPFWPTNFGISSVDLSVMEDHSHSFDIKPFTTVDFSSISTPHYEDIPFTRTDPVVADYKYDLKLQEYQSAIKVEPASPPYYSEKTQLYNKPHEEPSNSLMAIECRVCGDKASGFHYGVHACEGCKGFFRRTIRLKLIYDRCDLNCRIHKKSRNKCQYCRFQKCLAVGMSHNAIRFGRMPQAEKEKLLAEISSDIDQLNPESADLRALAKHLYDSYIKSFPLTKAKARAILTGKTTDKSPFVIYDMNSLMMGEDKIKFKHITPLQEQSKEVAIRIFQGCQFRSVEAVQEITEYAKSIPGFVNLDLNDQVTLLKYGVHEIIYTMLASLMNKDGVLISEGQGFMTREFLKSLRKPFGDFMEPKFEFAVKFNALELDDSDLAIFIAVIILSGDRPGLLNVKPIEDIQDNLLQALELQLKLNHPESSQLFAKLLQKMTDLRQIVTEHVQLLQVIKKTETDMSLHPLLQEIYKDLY
Method in brief: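 Fluorescence-based beta-lactamase readout in HEK293H PPARg UAS-bla cells after 17 h compound exposure (37C) and 1 h B/G FRET substrate incubation at room temperature.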

[4] = biological target: Peroxisome proliferator-activated receptor gamma (Homo sapiens) (UniProt P37231); assay: qHTS assay to identify small molecule antagonists of the peroxisome proliferator-activated receptor gamma (PPARg) signaling pathway (AID 743191; calls by dose curve; note: nearly all actives have a fitted effect of over 30% in size; for ratio activity, negative = inhibition: % is set by controls: 0 for no effect and ±100 for the full control effect); conditions: HEK293H PPARg-UAS-bla, beta-lactamase ratio, antagonist, 17 h; ratio activity, negative = inhibition: at 62.6 µM (top of the series) unless noted
Method in brief: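 GeneBLAzer PPARg UAS-bla HEK293H cells carrying a UAS-driven beta-lactamase reporter were plated at 3000 cells/well, preincubated 5 h at 37C, then given compound for 17 h at 37C; LiveBLAzer B/G FRET substrate was read after 1 h at room temperature.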

[5] = qHTS assay to identify small molecule antagonists of the peroxisome proliferator-activated receptor gamma (PPARg) signaling pathway - cell viability counter screen (AID 743194); conditions: PPARg-bla HEK293H viability, CellTiter-Glo luminescence, 17 h, co-treated with 50 nM rosiglitazone; activity change, negative = cytotoxicity: at 62.6 µM (top of the series) unless noted; note: nearly all actives have a fitted effect of over 55% in size
Method in brief: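 PPARg-UAS-bla HEK293H cells were plated, rested 5 h at 37 C, then treated with compounds plus rosiglitazone (50 nM final) for 17 h at 37 C; viability was then read by CellTiter-Glo luminescence after 30 min at room temperature.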

[6] = qHTS assay for small molecule agonists of the antioxidant response element (ARE) signaling pathway (AID 743202; active = well fitted activation curve with a large enough effect in the signal ratio in the repeat runs, not every such curve was filed as active; inconclusive = weak or mixed curves, or effect the other way; inactive = no such curve, though single readings can be large or run the other way; the % refers to the signal ratio; for activation: % is set by controls: 0 for no effect and ±100 for the full control effect); conditions: HepG2 ARE-bla reporter, beta-lactamase FRET, 16 h; activation: at 73.3 µM (top of the series) unless noted
Method in brief: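 Following a 16 h, 37 C exposure of reporter HepG2 cells (ARE-driven beta-lactamase, 2,000 cells/well) to compounds, FRET substrate was applied for 2 h at room temperature and fluorescence intensity recorded.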

[7] = qHTS assay for small molecule agonists of the antioxidant response element (ARE) signaling pathway - cell viability counter screen (AID 743203; calls by dose curve; note: nearly all actives have a fitted effect of over 55% in size); conditions: ARE-bla HepG2 viability, CellTiter-Glo luminescence, 16 h; viability change, negative = cytotoxic: at 73.3 µM (top of the series)
Method in brief: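 Parallel cytotoxicity read-out for the ARE-bla screen: HepG2 reporter cells, 16 hrs with compounds, then CellTiter-Glo luminescence.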

[8] = qHTS assay for small molecule activators of the heat shock response signaling pathway - cell viability counter screen (AID 743209); conditions: HSE-bla HeLa viability, CellTiter-Glo luminescence, 5 h; activity change, negative = cytotoxicity: at 62.6 µM (top of the series) unless noted; note: nearly all actives have a fitted effect of over 50% in size; for activity change, negative = cytotoxicity: % is set by controls: 0 for no effect and ±100 for the full control effect
Method in brief: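 To flag cytotoxic compounds, HSE-bla HeLa cells plated at 1500 cells/well were dosed for 5 h at 37 C, followed by the reporter FRET read and then CellTiter-Glo, with luminescence recorded 30 min after reagent addition.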

[9] = qHTS assay to identify small molecule agonists of the peroxisome proliferator-activated receptor delta (PPARd) signaling pathway - cell viability counter screen (AID 743211); conditions: PPARd-bla HEK293H viability, CellTiter-Glo luminescence, 17 h; activity change, negative = cytotoxicity: at 62.6 µM (top of the series); note: nearly all actives have a fitted effect of over 55% in size
Method in brief: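 Counter screen for cytotoxicity run in parallel with the PPARd reporter screen. Beta-lactamase reporter HEK293H cells exposed to compounds 17 h; ATP-based CellTiter-Glo luminescence quantified viability.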

[10] = qHTS assay for small molecule activators of the heat shock response signaling pathway (AID 743210; active = well fitted activation curve with a large enough effect in the signal ratio in the repeat runs, with a control signal flat, not every such curve was filed as active; inconclusive = weak or mixed curves; the % refers to the signal ratio); conditions: HeLa HSE-bla reporter, beta-lactamase ratio, 5 h; activation: at 62.6 µM (top of the series) unless noted
Method in brief: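 Heat shock element–beta-lactamase HeLa reporter cells; qHTS with compounds for 5 h at 37 C; detection by FRET substrate fluorescence after 2.5 h at RT.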
Potency is the fitted concentration of half-maximal effect; tags give direction and shape of the fitted curve or compound fluorescence and quenching.

With `O=C1c2ccccc2C(=O)c2c(O)ccc(O)c21` the Potency [1] was active: 7.7 µM, the Potency [2] was inconclusive: 68.6 µM [falling, single point] and the Potency [3] was inconclusive: 19.5 µM [rising, partial curve, poor fit]. The Potency [4] was “inactive”, the Potency [5] was inconclusive: 0.0155 µM [cytotoxic, full curve, poor fit] and the Potency [6] was active: 2.73 µM. The Potency [7] was inconclusive: 54.5 µM [cytotoxic, partial curve].

With `COC(=O)C1=C(C)NC(C)=C(C(=O)OC(C)(C)CN(C)CCC(c2ccccc2)c2ccccc2)C1c1cccc([N+](=O)[O-])c1` (configuration not stated) the Potency [1] was inconclusive: 29.8 µM [activator, partial curve, poor fit], the Potency [2] was inconclusive: 21.1 µM and the Potency [4] was inconclusive: 29.8 µM [falling, partial curve, poor fit]. For the same compound, the activation [6] was inconclusive: 0.943%.

In the case of `O=C1[C@H]2CCCC[C@H]2C(=O)N1CCCCN1CCN(c2nsc3ccccc23)CC1`, the Potency [1] was inconclusive: 33.5 µM [activator, partial curve, poor fit], the Potency [2] was inconclusive: 29.8 µM [falling, single point] and the Potency [3] was inconclusive: 19 µM [fluorescent, partial curve]. The Potency [6] was active: 23.7 µM and the Potency [8] was “inactive”.

In the case of `Oc1c(Cl)cc(Cl)c(Cl)c1Cl`, the Potency [1] was inconclusive: 67.1 µM [activator, single point] and inconclusive: 34.4 µM [activator, partial curve, poor fit], the Potency [2] was “inactive” and the Potency [3] was inconclusive: 6.17 µM [inhibitor, full curve]. The Potency [6] was inconclusive: 59.8 µM [rising, partial curve], the activation [6] was inconclusive: -78.7% and the Potency [7] was inconclusive: 30.6 µM [cytotoxic, partial curve]. The Potency [9] was inconclusive: 19.1 µM [cytotoxic, partial curve, poor fit].

For `COC1=CC(=O)C[C@@H](C)[C@]12Oc1c(Cl)c(OC)cc(OC)c1C2=O`, the Potency [1] was “inactive”, the Potency [3] was “inactive and active: 48.5 µM” and the Potency [4] was inconclusive: 13.7 µM [inhibitor, full curve] and active: 19.5 µM. For the same compound, the Potency [5] was inconclusive: 0.306 µM [cytotoxic, full curve, poor fit].

In the case of `Cc1cc(-c2ccccc2)nnc1NCCN1CCOCC1`, the Potency [1] was inconclusive: 18.8 µM [activator, partial curve, poor fit].

For `CO[C@@]12[C@H](COC(N)=O)C3=C(C(=O)C(C)=C(N)C3=O)N1C[C@@H]1N[C@@H]12`, the Potency [1] was inconclusive: 33.5 µM [activator, single point], the Potency [2] was active: 29.8 µM and the activation [3] was inconclusive: -14.7%. For the same compound, the Potency [4] was inconclusive: 13.3 µM, the Potency [5] was inconclusive: 29.8 µM [cytotoxic, single point] and the activation [6] was inconclusive: -25.8%. The Potency [8] was inconclusive: 21.1 µM [cytotoxic, partial curve] and the Potency [10] was “inactive”.

With `[Cu+]` the Potency [1] was inconclusive: 68.6 µM [activator, single point], the Potency [2] was “inactive” and the Potency [6] was inconclusive: 12.2 µM [rising, full curve]. For the same compound, the Potency [10] was inconclusive: 54.9 µM [activator, single point].

With `COc1ccccc1N=Nc1c(S(=O)(=O)O)cc2cc(S(=O)(=O)O)cc(NC(C)=O)c2c1O` the Potency [1] was inconclusive: 72.4 µM [activator, partial curve, poor fit], the Potency [2] was active: 22.9 µM and the Potency [4] was “inactive”. For the same compound, the Potency [10] was “inactive”.

For `Cc1nc2c([nH]1)c(=O)n(C)c(=O)n2Cc1ccco1`, the Potency [1] was inconclusive: 18.8 µM [activator, partial curve].

In the case of `COc1cc(C(=S)N2CCOCC2)cc(OC)c1OC`, the Potency [1] was “inactive”.

With `Cc1ccc(C)cc1` the Potency [1] was “inactive”.

For `CC(CCc1ccc(O)cc1)NCCc1ccc(O)c(O)c1` (configuration not stated), the Potency [1] was inconclusive: 26.6 µM [activator, single point], the Potency [2] was inconclusive: 33.5 µM [falling, single point] and the activation [6] was inconclusive: -6.99%. The Potency [8] was inconclusive: 0.298 µM [rising, full curve, poor fit] and the Potency [9] was “inactive”.

With `COc1ccc(C(=O)c2ccc(OC)cc2O)c(O)c1` the Potency [1] was inconclusive: 9.76 µM [activator, partial curve], the Potency [2] was “inactive” and the Potency [4] was inconclusive: 7.82 µM [inhibitor, full curve]. For the same compound, the Potency [5] was inconclusive: 62.1 µM [cytotoxic, single point] and the activation [6] was inconclusive: -12.9% [at 94.8 µM].
